Data from the supplement of paper PMC6089552.
Out of some 3,200 compounds screened, about 300 (9.4%) showed activity. This is a selection; strong and weak results do not stand in their true shares.

Tested on: A673/TR/shEF
Experiment: cell viability (LOESS-normalised, relative to median of negative controls) (log2 ratio); higher = more viable cells (less compound effect), active = hit call of the paper (over 3 MAD below the median)
Conditions: treatment time: 72 h
Summary of the method: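 A673/TR/shEF Ewing sarcoma cells (1,500 per well, 384-well plates) were grown with or without doxycycline to induce EWS-FLI1 shRNA knockdown, starting 24 h before compounds. Library compounds at two or more concentrations, with DMSO controls, were added for three days. Cell viability was read by CellTiter-Glo luminescence on an Envision reader, then LOESS-corrected per plate, divided by the median of negative controls and log2-transformed. Hits were wells at least three median absolute deviations from the median of all screened wells.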

[1] = 0.25 µM, library screen: screen2, EWS-FLI1 expression: high (no doxycycline)
[2] = 0.25 µM, library screen: screen2, EWS-FLI1 expression: low (doxycycline-induced shRNA knockdown)
[3] = 2.5 µM, library screen: screen2, EWS-FLI1 expression: high (no doxycycline)
[4] = 2.5 µM, library screen: screen2, EWS-FLI1 expression: low (doxycycline-induced shRNA knockdown)
[5] = 0.25 µM, library screen: screen1, EWS-FLI1 expression: high (no doxycycline)
[6] = 0.25 µM, library screen: screen1, EWS-FLI1 expression: low (doxycycline-induced shRNA knockdown)
[7] = 2.5 µM, library screen: screen1, EWS-FLI1 expression: high (no doxycycline)
[8] = 2.5 µM, library screen: screen1, EWS-FLI1 expression: low (doxycycline-induced shRNA knockdown)
[9] = 0.103 µM, library screen: screen3, EWS-FLI1 expression: high (no doxycycline)
[10] = 0.103 µM, library screen: screen3, EWS-FLI1 expression: low (doxycycline-induced shRNA knockdown)
[11] = 0.308 µM, library screen: screen3, EWS-FLI1 expression: high (no doxycycline)
[12] = 0.308 µM, library screen: screen3, EWS-FLI1 expression: low (doxycycline-induced shRNA knockdown)
[13] = 0.926 µM, library screen: screen3, EWS-FLI1 expression: high (no doxycycline)
[14] = 0.926 µM, library screen: screen3, EWS-FLI1 expression: low (doxycycline-induced shRNA knockdown)
[15] = 2.8 µM, library screen: screen3, EWS-FLI1 expression: high (no doxycycline)
[16] = 2.8 µM, library screen: screen3, EWS-FLI1 expression: low (doxycycline-induced shRNA knockdown)
[17] = 8.3 µM, library screen: screen3, EWS-FLI1 expression: high (no doxycycline)
[18] = 8.3 µM, library screen: screen3, EWS-FLI1 expression: low (doxycycline-induced shRNA knockdown)
[19] = 25 µM, library screen: screen3, EWS-FLI1 expression: high (no doxycycline)
[20] = 25 µM, library screen: screen3, EWS-FLI1 expression: low (doxycycline-induced shRNA knockdown)

## NCCC(=O)NCCc1cnc[nH]1
[1]
  cell viability (log2): inactive: 0.22
[2]
  cell viability (log2): inactive: 0.125
[3]
  cell viability (log2): inactive: 0.121
[4]
  cell viability (log2): inactive: 0.115

## N=C(N)SCCc1cccc(CCSC(=N)N)c1
[1]
  cell viability (log2): inactive: 0.11
[2]
  cell viability (log2): inactive: 0.0585
[3]
  cell viability (log2): inactive: 0.178
[4]
  cell viability (log2): inactive: 0.15

## O=c1cc(-c2ccc(O)cc2)oc2cc(O)cc(O)c12
[5]
  cell viability (log2): inactive: 0.098
[6]
  cell viability (log2): inactive: -0.000182
[1]
  cell viability (log2): inactive: 0.276
[2]
  cell viability (log2): inactive: 0.08
[7]
  cell viability (log2): inactive: 0.178
[8]
  cell viability (log2): inactive: 0.114
[3]
  cell viability (log2): inactive: 0.112
[4]
  cell viability (log2): inactive: 0.178

## CCOc1cccc(C(=O)c2ccc(O)c(O)c2O)c1
[5]
  cell viability (log2): inactive: 0.0703
[6]
  cell viability (log2): inactive: 0.005
[7]
  cell viability (log2): inactive: 0.0783
[8]
  cell viability (log2): inactive: 0.0694

## NCCC[C@H](N)C(=O)O
[5]
  cell viability (log2): inactive: 0.0644
[6]
  cell viability (log2): inactive: -0.0297
[7]
  cell viability (log2): inactive: 0.00838
[8]
  cell viability (log2): inactive: 0.0435

## NC(=O)N1c2ccccc2C=Cc2ccccc21
[9]
  cell viability (log2): inactive: 0.0629
[10]
  cell viability (log2): inactive: 0.0878
[5]
  cell viability (log2): inactive: 0.153
[6]
  cell viability (log2): inactive: -0.0111
[1]
  cell viability (log2): inactive: 0.157
[2]
  cell viability (log2): inactive: 0.0743
[11]
  cell viability (log2): inactive: 0.058
[12]
  cell viability (log2): inactive: -0.00705
[13]
  cell viability (log2): inactive: 0.00665
[14]
  cell viability (log2): inactive: 0.0796
[7]
  cell viability (log2): inactive: 0.148
[8]
  cell viability (log2): inactive: 0.193
[3]
  cell viability (log2): inactive: 0.0205
[4]
  cell viability (log2): inactive: 0.049
[15]
  cell viability (log2): inactive: 0.15
[16]
  cell viability (log2): inactive: 0.0836
[17]
  cell viability (log2): inactive: 0.12
[18]
  cell viability (log2): inactive: 0.00813
[19]
  cell viability (log2): inactive: 0.151
[20]
  cell viability (log2): inactive: 0.183

## CN(C)CCN(Cc1cccs1)c1ccccn1
[5]
  cell viability (log2): inactive: 0.119
[6]
  cell viability (log2): inactive: 0.101
[1]
  cell viability (log2): inactive: 0.0797
[2]
  cell viability (log2): inactive: 0.0374
[7]
  cell viability (log2): inactive: 0.197
[8]
  cell viability (log2): inactive: 0.294
[3]
  cell viability (log2): inactive: 0.0957
[4]
  cell viability (log2): inactive: 0.089

## N=C1Sc2ccccc2C2=NCCCN12
[1]
  cell viability (log2): inactive: 0.11
[2]
  cell viability (log2): inactive: 0.161
[3]
  cell viability (log2): inactive: 0.138
[4]
  cell viability (log2): inactive: 0.097

## COc1ccc2c(c1)OCc1c-2oc2cc(OC)ccc12
[5]
  cell viability (log2): inactive: 0.134
[6]
  cell viability (log2): inactive: 0.00532
[7]
  cell viability (log2): inactive: 0.0869
[8]
  cell viability (log2): inactive: 0.011

## Nc1nc(=O)c2nc(CNc3ccc(C(=O)N[C@@H](CCC(=O)O)C(=O)O)cc3)cnc2[nH]1
[5]
  cell viability (log2): inactive: 0.0181
[6]
  cell viability (log2): inactive: 0.031
[7]
  cell viability (log2): inactive: 0.0902
[8]
  cell viability (log2): inactive: 0.0775

## CC(=O)N[C@@H](CC(C)C)C(=O)O
[5]
  cell viability (log2): inactive: 0.043
[6]
  cell viability (log2): inactive: 0.0505
[7]
  cell viability (log2): inactive: 0.162
[8]
  cell viability (log2): inactive: 0.124

## COc1c2ccoc2nc2c(OC)c(OCC(O)C(C)(C)O)ccc12 (stereo unspecified)
[5]
  cell viability (log2): inactive: 0.11
[6]
  cell viability (log2): inactive: 0.126
[7]
  cell viability (log2): inactive: 0.164
[8]
  cell viability (log2): inactive: 0.152

## O=C(C=Cc1ccccc1)c1ccccc1O
[5]
  cell viability (log2): inactive: 0.0713
[6]
  cell viability (log2): inactive: 0.0789
[7]
  cell viability (log2): inactive: 0.0334
[8]
  cell viability (log2): inactive: 0.11

## CC(C)NCC(O)COc1ccc(COCCOC(C)C)cc1 (stereo unspecified)
[9]
  cell viability (log2): inactive: 0.137
[10]
  cell viability (log2): inactive: 0.0485
[11]
  cell viability (log2): inactive: 0.11
[12]
  cell viability (log2): inactive: 0.0659
[13]
  cell viability (log2): inactive: 0.123
[14]
  cell viability (log2): inactive: 0.0385
[15]
  cell viability (log2): inactive: 0.115
[16]
  cell viability (log2): inactive: 0.0519
[17]
  cell viability (log2): inactive: 0.0669
[18]
  cell viability (log2): inactive: 0.0189
[19]
  cell viability (log2): inactive: 0.102
[20]
  cell viability (log2): inactive: 0.122

## CN1CC[C@H](c2c(O)cc(O)c3c(=O)cc(-c4ccccc4Cl)oc23)[C@H](O)C1
[9]
  cell viability (log2): active: -0.182
[11]
  cell viability (log2): active: -0.451
[12]
  cell viability (log2): active: -0.231
[13]
  cell viability (log2): active: -1.4
[14]
  cell viability (log2): active: -1.66
[15]
  cell viability (log2): active: -3.54
[16]
  cell viability (log2): active: -2.88
[17]
  cell viability (log2): active: -4.29
[18]
  cell viability (log2): active: -4.28
[19]
  cell viability (log2): active: -4.33
[20]
  cell viability (log2): active: -4.3

## CC(N)=O
[1]
  cell viability (log2): inactive: 0.0101
[2]
  cell viability (log2): inactive: 0.0952
[3]
  cell viability (log2): inactive: 0.0948
[4]
  cell viability (log2): inactive: 0.186

## COc1ccc(-c2cc(=O)c3c(O)cc(O)cc3o2)cc1O
[5]
  cell viability (log2): inactive: -0.0193
[6]
  cell viability (log2): inactive: -0.536
[7]
  cell viability (log2): inactive: -0.0793
[8]
  cell viability (log2): inactive: 0.0681

## Nc1nc(Cl)nc2c1ncn2[C@@H]1O[C@H](CO)[C@@H](O)[C@@H]1F
[15]
  cell viability (log2): active: -0.287
[17]
  cell viability (log2): active: -1.27
[19]
  cell viability (log2): active: -3.63
[20]
  cell viability (log2): active: -0.69

## COc1cc2ccc(=O)oc2c(OC)c1OC
[5]
  cell viability (log2): inactive: 0.24
[6]
  cell viability (log2): inactive: 0.119
[7]
  cell viability (log2): inactive: 0.156
[8]
  cell viability (log2): inactive: 0.115

## Cc1ccc(OC[C@H](O)[C@H](C)NC(C)C)c2c1CCC2
[1]
  cell viability (log2): inactive: 0.253
[2]
  cell viability (log2): inactive: 0.0742
[3]
  cell viability (log2): inactive: 0.147
[4]
  cell viability (log2): inactive: 0.115

## NCCCC[C@H](N[C@@H](CCc1ccccc1)C(=O)O)C(=O)N1CCC[C@H]1C(=O)O
[5]
  cell viability (log2): inactive: 0.105
[6]
  cell viability (log2): inactive: 0.00454
[7]
  cell viability (log2): inactive: 0.139
[8]
  cell viability (log2): inactive: -0.104

## CC(C)(C)NC[C@H](O)COc1nsnc1N1CCOCC1
[5]
  cell viability (log2): inactive: 0.0613
[6]
  cell viability (log2): inactive: 0.0754
[7]
  cell viability (log2): inactive: 0.179
[8]
  cell viability (log2): inactive: 0.0567

## C[C@]12CCC(=O)C=C1CC[C@@H]1[C@@H]2[C@@H](O)C[C@@]2(C)[C@H]1CC[C@]2(O)C(=O)COC(=O)CCC(=O)O
[5]
  cell viability (log2): inactive: 0.0211
[6]
  cell viability (log2): inactive: 0.0324
[7]
  cell viability (log2): inactive: 0.15
[8]
  cell viability (log2): inactive: -0.198

## Cc1ccc(C(=O)Nc2ccc(CN3CCN(C)CC3)c(C(F)(F)F)c2)cc1C#Cc1cnc2cccnn12
[9]
  cell viability (log2): inactive: -0.0141
[10]
  cell viability (log2): inactive: 0.111
[11]
  cell viability (log2): inactive: -0.0138
[12]
  cell viability (log2): inactive: 0.169
[13]
  cell viability (log2): active: -0.202
[14]
  cell viability (log2): 0.218
[15]
  cell viability (log2): active: -0.252
[16]
  cell viability (log2): inactive: 0.093
[17]
  cell viability (log2): active: -0.655
[18]
  cell viability (log2): active: -0.442
[19]
  cell viability (log2): active: -1.59
[20]
  cell viability (log2): active: -1.35

## CCCCN1CCC(COC(=O)c2cc(Cl)c(N)c3c2OCCO3)CC1
[1]
  cell viability (log2): active: -0.151

## Oc1ccccc1O
[1]
  cell viability (log2): inactive: 0.122
[2]
  cell viability (log2): inactive: 0.0415
[3]
  cell viability (log2): inactive: 0.0646
[4]
  cell viability (log2): inactive: 0.111

## COc1cc(OC)c(OC)cc1CN1CCN(Cc2cccnc2)CC1
[5]
  cell viability (log2): inactive: 0.0812
[6]
  cell viability (log2): inactive: 0.0446
[7]
  cell viability (log2): inactive: 0.193
[8]
  cell viability (log2): inactive: 0.00403

## FC(F)(F)c1ccccc1-n1ccnc1
[1]
  cell viability (log2): inactive: 0.165
[2]
  cell viability (log2): inactive: 0.0142
[3]
  cell viability (log2): inactive: 0.122
[4]
  cell viability (log2): inactive: 0.0499
